# From PMC12820563
# The other results are listed elsewhere or left out. The list includes weakly bound sequences.
# Target: T1, MBP-FoxP3dN (UniProt Q99JB6)
# T1 sequence: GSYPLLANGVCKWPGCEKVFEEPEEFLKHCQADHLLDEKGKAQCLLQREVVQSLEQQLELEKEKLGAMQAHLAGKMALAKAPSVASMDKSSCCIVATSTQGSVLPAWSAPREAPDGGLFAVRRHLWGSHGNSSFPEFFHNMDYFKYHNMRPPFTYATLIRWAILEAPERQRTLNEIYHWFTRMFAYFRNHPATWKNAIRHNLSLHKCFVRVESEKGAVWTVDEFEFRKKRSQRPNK
# Assay: PD-seq (MBP pull-down with sequencing)
# Details: 20 mM Tris-HCl pH 7.5, 100 mM NaCl, 1.5 mM MgCl2, 0.4 uM protein, 0.1 uM dsDNA library, 30 min, room temperature, amylose pull-down; high values mean tight binding; double strand, one strand shown
row,Sequence,binding signal (RPM ratio (pull-down/input))
1,GATGATTGTTCTCCCAGCTGATGAATTCTTTGTGTCGAGTAAACAAATTTTCCTAATCTTTCTGTTCAAGCGCCATCTAC,0.573
2,GATGATTGTTCTCCCAGCTGATGAATTACTCGGTTCGAGTAAACAAATTTTCCTAATCTTTCTGTTCAAGCGCCATCTAC,0.264
3,GATGATTGTTCTCCCAGCTGATGAATTATTTCCCTCGAGTAAACAAATTTTCCTAATCTTTCTGTTCAAGCGCCATCTAC,0.421
4,GATGATTGTTCTCCCAGCTGATGAATTCATATGATCGAGTAAACAAATTTTCCTAATCTTTCTGTTCAAGCGCCATCTAC,0.401
5,GATGATTGTTCTCCCAGCTGATGAATTCGGCATGTCGAGTAAACAAATTTTCCTAATCTTTCTGTTCAAGCGCCATCTAC,5.04
6,GATGATTGTTCTCCCAGCTGATGAATTGCCTGAATCGAGTAAACAAATTTTCCTAATCTTTCTGTTCAAGCGCCATCTAC,0.376
7,GATGATTGTTCTCCCAGCTGATGAATTTATGAATTCGAGTAAACAAATTTTCCTAATCTTTCTGTTCAAGCGCCATCTAC,0.946
8,GATGATTGTTCTCCCAGCTGATGAATTTCACTCGTCGAGTAAACAAATTTTCCTAATCTTTCTGTTCAAGCGCCATCTAC,0.462
9,GATGATTGTTCTCCCAGCTGATGAATTCACGAGATCGAGTAAACAAATTTTCCTAATCTTTCTGTTCAAGCGCCATCTAC,0.252
10,GATGATTGTTCTCCCAGCTGATGAATTCCTTTGGTCGAGTAAACAAATTTTCCTAATCTTTCTGTTCAAGCGCCATCTAC,0.395
11,GATGATTGTTCTCCCAGCTGATGAATTATTTCAGTCGAGTAAACAAATTTTCCTAATCTTTCTGTTCAAGCGCCATCTAC,0.258
12,GATGATTGTTCTCCCAGCTGATGAATTTGCATTGTCGAGTAAACAAATTTTCCTAATCTTTCTGTTCAAGCGCCATCTAC,5.29
13,GATGATTGTTCTCCCAGCTGATGAATTGCCCCAGTCGAGTAAACAAATTTTCCTAATCTTTCTGTTCAAGCGCCATCTAC,0.347
14,GATGATTGTTCTCCCAGCTGATGAATTGTGGCGCTCGAGTAAACAAATTTTCCTAATCTTTCTGTTCAAGCGCCATCTAC,2.07
15,GATGATTGTTCTCCCAGCTGATGAATTACGCTCATCGAGTAAACAAATTTTCCTAATCTTTCTGTTCAAGCGCCATCTAC,0.758
16,GATGATTGTTCTCCCAGCTGATGAATTTATGCCTTCGAGTAAACAAATTTTCCTAATCTTTCTGTTCAAGCGCCATCTAC,3.43
17,GATGATTGTTCTCCCAGCTGATGAATTAGGGAGTTCGAGTAAACAAATTTTCCTAATCTTTCTGTTCAAGCGCCATCTAC,0.373
18,GATGATTGTTCTCCCAGCTGATGAATTTTGTGTTTCGAGTAAACAAATTTTCCTAATCTTTCTGTTCAAGCGCCATCTAC,5.3
19,GATGATTGTTCTCCCAGCTGATGAATTTCCCCCTTCGAGTAAACAAATTTTCCTAATCTTTCTGTTCAAGCGCCATCTAC,0.194
20,GATGATTGTTCTCCCAGCTGATGAATTAAGAGCTTCGAGTAAACAAATTTTCCTAATCTTTCTGTTCAAGCGCCATCTAC,0.278
21,GATGATTGTTCTCCCAGCTGATGAATTACCTCCCTCGAGTAAACAAATTTTCCTAATCTTTCTGTTCAAGCGCCATCTAC,0.279

row,Sequence,binding signal (RPM ratio (pull-down/input))
1,GATGATTGTTCTCCCAGCTGATGAATTCATTAGTTCGAGTAAACAAATTTTCCTAATCTTTCTGTTCAAGCGCCATCTAC,1.59
2,GATGATTGTTCTCCCAGCTGATGAATTCCTGTGTTCGAGTAAACAAATTTTCCTAATCTTTCTGTTCAAGCGCCATCTAC,0.599
3,GATGATTGTTCTCCCAGCTGATGAATTTGTGTCATCGAGTAAACAAATTTTCCTAATCTTTCTGTTCAAGCGCCATCTAC,4.37
4,GATGATTGTTCTCCCAGCTGATGAATTACCGTCATCGAGTAAACAAATTTTCCTAATCTTTCTGTTCAAGCGCCATCTAC,0.671
5,GATGATTGTTCTCCCAGCTGATGAATTATAAGGATCGAGTAAACAAATTTTCCTAATCTTTCTGTTCAAGCGCCATCTAC,0.263
6,GATGATTGTTCTCCCAGCTGATGAATTCACTCAGTCGAGTAAACAAATTTTCCTAATCTTTCTGTTCAAGCGCCATCTAC,0.284
7,GATGATTGTTCTCCCAGCTGATGAATTATTGAGTTCGAGTAAACAAATTTTCCTAATCTTTCTGTTCAAGCGCCATCTAC,0.631
8,GATGATTGTTCTCCCAGCTGATGAATTAACAGTGTCGAGTAAACAAATTTTCCTAATCTTTCTGTTCAAGCGCCATCTAC,0.495
9,GATGATTGTTCTCCCAGCTGATGAATTCAAGAATTCGAGTAAACAAATTTTCCTAATCTTTCTGTTCAAGCGCCATCTAC,0.436
10,GATGATTGTTCTCCCAGCTGATGAATTCGGAAGATCGAGTAAACAAATTTTCCTAATCTTTCTGTTCAAGCGCCATCTAC,0.201
11,GATGATTGTTCTCCCAGCTGATGAATTGAATAGCTCGAGTAAACAAATTTTCCTAATCTTTCTGTTCAAGCGCCATCTAC,0.346
12,GATGATTGTTCTCCCAGCTGATGAATTTCCATTTTCGAGTAAACAAATTTTCCTAATCTTTCTGTTCAAGCGCCATCTAC,0.295
13,GATGATTGTTCTCCCAGCTGATGAATTGATAAAATCGAGTAAACAAATTTTCCTAATCTTTCTGTTCAAGCGCCATCTAC,0.246
14,GATGATTGTTCTCCCAGCTGATGAATTGGATGCGTCGAGTAAACAAATTTTCCTAATCTTTCTGTTCAAGCGCCATCTAC,1.9
15,GATGATTGTTCTCCCAGCTGATGAATTATAGTTGTCGAGTAAACAAATTTTCCTAATCTTTCTGTTCAAGCGCCATCTAC,1.61
16,GATGATTGTTCTCCCAGCTGATGAATTAAATACCTCGAGTAAACAAATTTTCCTAATCTTTCTGTTCAAGCGCCATCTAC,0.433
17,GATGATTGTTCTCCCAGCTGATGAATTGGAACATTCGAGTAAACAAATTTTCCTAATCTTTCTGTTCAAGCGCCATCTAC,0.484
18,GATGATTGTTCTCCCAGCTGATGAATTGGAGCTATCGAGTAAACAAATTTTCCTAATCTTTCTGTTCAAGCGCCATCTAC,0.516
19,GATGATTGTTCTCCCAGCTGATGAATTCGATATGTCGAGTAAACAAATTTTCCTAATCTTTCTGTTCAAGCGCCATCTAC,1.91
20,GATGATTGTTCTCCCAGCTGATGAATTCGTACTGTCGAGTAAACAAATTTTCCTAATCTTTCTGTTCAAGCGCCATCTAC,0.667
21,GATGATTGTTCTCCCAGCTGATGAATTCCTCTTGTCGAGTAAACAAATTTTCCTAATCTTTCTGTTCAAGCGCCATCTAC,0.295

row,Sequence,binding signal (RPM ratio (pull-down/input))
1,GATGATTGTTCTCCCAGCTGATGAATTTGGCACCTCGAGTAAACAAATTTTCCTAATCTTTCTGTTCAAGCGCCATCTAC,1.26
2,GATGATTGTTCTCCCAGCTGATGAATTTCTACTATCGAGTAAACAAATTTTCCTAATCTTTCTGTTCAAGCGCCATCTAC,0.365
3,GATGATTGTTCTCCCAGCTGATGAATTGGTGAACTCGAGTAAACAAATTTTCCTAATCTTTCTGTTCAAGCGCCATCTAC,0.36
4,GATGATTGTTCTCCCAGCTGATGAATTTCGAGGCTCGAGTAAACAAATTTTCCTAATCTTTCTGTTCAAGCGCCATCTAC,0.411
5,GATGATTGTTCTCCCAGCTGATGAATTGACCAGGTCGAGTAAACAAATTTTCCTAATCTTTCTGTTCAAGCGCCATCTAC,0.183
6,GATGATTGTTCTCCCAGCTGATGAATTATGATGATCGAGTAAACAAATTTTCCTAATCTTTCTGTTCAAGCGCCATCTAC,1.63
7,GATGATTGTTCTCCCAGCTGATGAATTCGTCGCTTCGAGTAAACAAATTTTCCTAATCTTTCTGTTCAAGCGCCATCTAC,0.728
8,GATGATTGTTCTCCCAGCTGATGAATTAGCGAGGTCGAGTAAACAAATTTTCCTAATCTTTCTGTTCAAGCGCCATCTAC,0.321
9,GATGATTGTTCTCCCAGCTGATGAATTAAACCGTTCGAGTAAACAAATTTTCCTAATCTTTCTGTTCAAGCGCCATCTAC,0.376
10,GATGATTGTTCTCCCAGCTGATGAATTCGCGGCGTCGAGTAAACAAATTTTCCTAATCTTTCTGTTCAAGCGCCATCTAC,0.548
11,GATGATTGTTCTCCCAGCTGATGAATTGCTAAAATCGAGTAAACAAATTTTCCTAATCTTTCTGTTCAAGCGCCATCTAC,0.394
12,GATGATTGTTCTCCCAGCTGATGAATTTACACGCTCGAGTAAACAAATTTTCCTAATCTTTCTGTTCAAGCGCCATCTAC,0.564
13,GATGATTGTTCTCCCAGCTGATGAATTAGTCTACTCGAGTAAACAAATTTTCCTAATCTTTCTGTTCAAGCGCCATCTAC,1.49
14,GATGATTGTTCTCCCAGCTGATGAATTTCCAATATCGAGTAAACAAATTTTCCTAATCTTTCTGTTCAAGCGCCATCTAC,0.339
15,GATGATTGTTCTCCCAGCTGATGAATTGAAACCATCGAGTAAACAAATTTTCCTAATCTTTCTGTTCAAGCGCCATCTAC,0.409
16,GATGATTGTTCTCCCAGCTGATGAATTGTGTTAGTCGAGTAAACAAATTTTCCTAATCTTTCTGTTCAAGCGCCATCTAC,5.98
17,GATGATTGTTCTCCCAGCTGATGAATTAGAACAATCGAGTAAACAAATTTTCCTAATCTTTCTGTTCAAGCGCCATCTAC,0.387
18,GATGATTGTTCTCCCAGCTGATGAATTTCACTACTCGAGTAAACAAATTTTCCTAATCTTTCTGTTCAAGCGCCATCTAC,0.353
19,GATGATTGTTCTCCCAGCTGATGAATTTCCAACATCGAGTAAACAAATTTTCCTAATCTTTCTGTTCAAGCGCCATCTAC,0.393
20,GATGATTGTTCTCCCAGCTGATGAATTGCGTGTGTCGAGTAAACAAATTTTCCTAATCTTTCTGTTCAAGCGCCATCTAC,2.22
21,GATGATTGTTCTCCCAGCTGATGAATTAAAGATCTCGAGTAAACAAATTTTCCTAATCTTTCTGTTCAAGCGCCATCTAC,0.247
